Data as given in the supplement of paper PMC10126150.
Sequences with one replicate were seen in a single cluster, so their values are uncertain.

Test system: ATP
Assay: switch fluorescence ratio, 500 uM ATP over buffer (Cy3 cluster intensity, sum of 5 cycles each) (fold (ratio)); higher = stronger signal-on switching upon ATP binding; sequences stand for … in TCGTCGGCAGCGTCAGATGTGTATAAGAGACAGTTTTTTTTTTTTTTTTTTTTTTTTT…TC
Details: aptamer strand: ATP DNA aptamer (quencher-CACCTGGGGGAGTATTGCGGAGGAAGG + anchor), 100 nM annealed; ATP concentration: 500 uM; one replicate
In short: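 Cy3-labelled switching-strand clusters on a modified Illumina MiSeq flow-cell were annealed to 100 nM quencher-labelled ATP aptamer and imaged first in selection buffer, then after 15 min with 500 uM ATP at 22 °C. NaOH stripping and re-annealing separated each of five buffer/ATP cycles, and clusters outside 100-1000 RFU were excluded. The fluorescence ratio sums target-cycle Cy3 intensity over buffer-cycle Cy3 intensity per cluster and averages it per switch-domain sequence.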
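Note: ATP exposure 15 min at 22 °C before imaging.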

Sequence	switch fluorescence ratio
AGGGTACGGT	1.02
GACAGATCTC	0.999
TACGGCGCA	0.939
TGTGATCTTT	0.997
GACGGTTTCG	0.954
AGAGGTGCTT	1.07
TCCATTAAGT	1.01
AGGGTCACGG	0.981
CCCGCAGTTT	2.32
TACAGCGCGA	1.14
GCCATTGGCT	0.983
TTTAATCCAC	0.995
AGTTGACTGG	0.998
AGCGAACGAT	1.06
GTTGGATCTC	0.944
GGGGCAACTA	0.979
TCGATAACAC	1.02
GGAGATGGTT	1.02
TTTAGGTAAA	0.994
CACCAAGGGG	1.73
TATTCGGCCG	1.04
GGCGCAACTA	1.38
CGCTAGTACC	1.77
CAAGGGGG	0.978
TTGACAGGCG	1.08
GTTCATCACA	1.01

Sequence	switch fluorescence ratio
ACCCGGGTGG	1.42
ATTGGAATAT	1.01
TTTCTTCAGT	0.996
CCAAATCTGA	1.03
CGTTATCTAT	1.01
TTTAACGTGC	0.998
GCGAGCCAGC	0.945
ACTGGGGGTC	0.986
TATCGGGAGA	0.987
GACCAATCAG	0.99
TCGAGCTGGT	0.983
AAGGGAGGGT	1
TTTATATCG	0.959
GTGATTAGAA	1.03
TGGGTCAGAG	0.944
GCAGGCGTCC	1.06
TTAACAGCAA	1.75
GTCGCTTGTT	1
CTGGTTGGG	1.01
CAATTAGCAG	1
CGGGGTAACA	1.05
TAGACACGTT	0.991
GGCCCAACAA	1.06
TGGCGCAGGA	1.04
CAATCTGGTT	1.02
GGATAAGAGA	0.973

Sequence	switch fluorescence ratio
TTGTATTGGC	0.966
GGTAGCCGAC	1
AAGCTTGTA	1.02
AGGGATGCCA	1.01
CGACCCCGTA	1.06
TTTCACGGGT	1.01
TTCCAGTAAC	1.01
TTCATGTCCT	1.04
AGGACGAGAT	0.987
AAGGTATACT	0.995
ATTGGGTGG	1.01
CCGGCACCAA	2.4
TATAAGCGGG	0.949
GCGGGGATAT	1.03
AGAAGGATCG	0.999
GTGGTATGGC	1.05
AGTCTTTAGA	0.95
ACTGGGGGA	0.978
TCTACTAGGG	1.31
CTGGAAATTC	1
CTGCACATGA	1.43
AATTTGTTT	1.02
AGGAAGCTTC	1
TGGTCACAGG	1.03
GATATAAAAA	1.15
GATTGCGCTG	0.983

Sequence	switch fluorescence ratio
TATGGAGGTA	1.09
TTGCAGCTGG	0.974
TTAAGTGGAG	1.02
TGTTTTATTA	0.991
ATAGGTTCAT	0.982
TAAGATTACT	0.999
CAATACTTGT	1.04
GAATCGTGGG	0.96
ACAATCGGCA	0.989
AAGCCGTCTC	1.06
ATATGTGGAC	1
CATTGGGCCC	0.989
TAGTAGGTTT	0.988
GATTCCGCGC	2.22
ACGGATTGAG	0.973
GGTGACCTGG	1.04
AAGGACCGTT	0.995
AATTGATACT	1.03
GGGTAAGACA	1.01
ATAGGTAGTA	0.988
ATTAGTCTGT	0.99
AGATCTTCGT	1.04
CGGTAAAGAG	1.06
CCAGGCGCC	0.998
GATTTGCACG	1.03
GCACCTACT	1.18

Sequence	switch fluorescence ratio
GGTTCCACCG	1.07
AATGGTAGTG	0.982
GGACTAAGGG	0.931
GGTTTCGCAT	1.18
TGGAAATGCT	1.04
TACTTGTACT	1.13
ATGAGGATAT	1
TTAGGCTCGG	1.02
AGTATGCGCT	0.953
TCATAGGTTA	0.989
GCTGGCCCGC	0.955
ATGGCTGAGC	1.46
CGTCGCGAAG	1.04
CAGCGGCGAC	1.2
TTTGCTATGC	1.09
AAATCTCTA	1.03
AGTCGGCCGA	1.04
GTCGTCCCCG	0.974
GAGAAAAGTA	0.98
TTTCGCACCC	1.25
CAATGGAGCG	1.08
AAGCACCGAC	1.45
GATTTGGATG	0.984
TGGTCGGTGC	0.998
TTAACCATTT	0.968
ATGTATGTAG	0.994

Sequence	switch fluorescence ratio
CTCGGCTGG	1.02
TCACTATCTA	1.06
CTGGAAGTA	1.01
TTCTGCCACA	1.09
TTTGCATC	0.986
GCTGAGTAGT	1
CCCGTTTCGA	0.995
AATTTC	1.03
ATAGTGGCCA	1.02
CAGGGTATCG	1.03
ACCATTGTTG	1
ACTTTACGG	1.33
TGGGGGCA	1
CGTTGACTCT	0.999
TATCATCGG	1.03
CTCTAATCCA	0.989
AAGCAAAAGA	1.04
GGTGGGCCTG	0.992
AATGACAATA	1.06
AAACCCATAG	1.06
AGACCGTAAA	1.51
GGGGCTCGGC	1.01
ATAGGTGATT	1.01
CGTCCCGTAA	1.58
